{
  "source": "the supplement of paper PMC12645437",
  "about": "“Orthogonal IMiD-Degron Pairs Induce Selective Protein Degradation in Cells” (ACS Chemical Biology, 2025)",
  "note": "The other results are listed elsewhere or left out.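 Also: jurkat cells carrying a lentiviral library of mutant zinc finger degrons fused to EGFP plus mCherry, mCherry+ cells FACS sorted, degron abundance counted by next-generation sequencing.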",
  "data": [
    {"molecular_target": "no compound (DMSO)", "assay": "log2 fold change of degron read counts, EGFP-low vs EGFP+ sorted cells; higher = lower degron-EGFP level without compound (poor expression or instability)", "settings": "compound: DMSO control; 18 h", "values": [
      {"sequence": "FHCNICGAIFTQKGNLLRHIKL", "log2 fold change of degron read counts": 0.128},
      {"sequence": "FMCPQCGAWFTQKGNLLRHIKL", "log2 fold change of degron read counts": 0.43},
      {"sequence": "FFCEQCGACFTQKGNLLRHIKL", "log2 fold change of degron read counts": -1.28},
      {"sequence": "FVCEQCGAEFTQKGNLLRHIKL", "log2 fold change of degron read counts": -3.82},
      {"sequence": "FKCDICGAQFTQKGNLLRHIKL", "log2 fold change of degron read counts": -1.35},
      {"sequence": "FMCNQCGAVFTQKGNLLRHIKL", "log2 fold change of degron read counts": 0.203},
      {"sequence": "FLCNICGAYFTQKGNLLRHIKL", "log2 fold change of degron read counts": 0.924},
      {"sequence": "FRCPICGRQFTQKGNLLRHIKL", "log2 fold change of degron read counts": -0.0206},
      {"sequence": "FHCEQCGAAFTQKGNLLRHIKL", "log2 fold change of degron read counts": -1.31},
      {"sequence": "FICNICGAPFTQKGNLLRHIKL", "log2 fold change of degron read counts": -0.638},
      {"sequence": "FNCNICGARFTQKGNLLRHIKL", "log2 fold change of degron read counts": -0.392},
      {"sequence": "FHCDQCGAIFTQKGNLLRHIKL", "log2 fold change of degron read counts": -0.861},
      {"sequence": "FWCEVCGAYFTQKGNLLRHIKL", "log2 fold change of degron read counts": 0.255},
      {"sequence": "FDCNQCGHFFTQKGNLLRHIKL", "log2 fold change of degron read counts": 1.37},
      {"sequence": "FNCDICGAGFTQKGNLLRHIKL", "log2 fold change of degron read counts": -1.19},
      {"sequence": "FCCEICGRVFTQKGNLLRHIKL", "log2 fold change of degron read counts": -0.744},
      {"sequence": "FLCEVCGATFTQKGNLLRHIKL", "log2 fold change of degron read counts": -2.29},
      {"sequence": "FRCEVCGAEFTQKGNLLRHIKL", "log2 fold change of degron read counts": -2.23},
      {"sequence": "FFCNICGAKFTQKGNLLRHIKL", "log2 fold change of degron read counts": -0.668},
      {"sequence": "FQCEICGHFFTQKGNLLRHIKL", "log2 fold change of degron read counts": -0.576},
      {"sequence": "FACDVCGAQFTQKGNLLRHIKL", "log2 fold change of degron read counts": -1.5},
      {"sequence": "LQCEICGFNCTQKGNLLRHIKL", "log2 fold change of degron read counts": -0.235},
      {"sequence": "FRCPQCGAPFTQKGNLLRHIKL", "log2 fold change of degron read counts": -0.296},
      {"sequence": "FLCPQCGADFTQKGNLLRHIKL", "log2 fold change of degron read counts": -1.82},
      {"sequence": "LWCPICGFICTQKGNLLRHIKL", "log2 fold change of degron read counts": 3.31},
      {"sequence": "FECNQCGHQFTQKGNLLRHIKL", "log2 fold change of degron read counts": -1.55},
      {"sequence": "LFCPICGFACTQKGNLLRHIKL", "log2 fold change of degron read counts": 1.5},
      {"sequence": "LWCEICGFGCTQKGNLLRHIKL", "log2 fold change of degron read counts": 1.67},
      {"sequence": "FHCNICGATFTQKGNLLRHIKL", "log2 fold change of degron read counts": -0.13},
      {"sequence": "FLCEICGHDFTQKGNLLRHIKL", "log2 fold change of degron read counts": -2.1},
      {"sequence": "FQCNQCGAQFTQKGNLLRHIKL", "log2 fold change of degron read counts": -1.48},
      {"sequence": "FMCPICGAKFTQKGNLLRHIKL", "log2 fold change of degron read counts": -0.285},
      {"sequence": "FGCEQCGAWFTQKGNLLRHIKL", "log2 fold change of degron read counts": -0.613},
      {"sequence": "LYCNQCGFHCTQKGNLLRHIKL", "log2 fold change of degron read counts": 1.08},
      {"sequence": "FCCSVCGHKFTQKGNLLRHIKL", "log2 fold change of degron read counts": -0.245},
      {"sequence": "FWCEICGRGFTQKGNLLRHIKL", "log2 fold change of degron read counts": -1.49},
      {"sequence": "FICPICGAIFTQKGNLLRHIKL", "log2 fold change of degron read counts": 0.726},
      {"sequence": "LVCPICGFGCTQKGNLLRHIKL", "log2 fold change of degron read counts": 0.592},
      {"sequence": "FLCDICGACFTQKGNLLRHIKL", "log2 fold change of degron read counts": -1.43},
      {"sequence": "FVCDQCGAAFTQKGNLLRHIKL", "log2 fold change of degron read counts": -2.51},
      {"sequence": "LCCNQCGFFCTQKGNLLRHIKL", "log2 fold change of degron read counts": 2},
      {"sequence": "LACNQCGFECTQKGNLLRHIKL", "log2 fold change of degron read counts": -0.903},
      {"sequence": "FTCPVCGANFTQKGNLLRHIKL", "log2 fold change of degron read counts": -0.558},
      {"sequence": "FFCDVCGAPFTQKGNLLRHIKL", "log2 fold change of degron read counts": -0.43},
      {"sequence": "FSCEICGRWFTQKGNLLRHIKL", "log2 fold change of degron read counts": -0.108},
      {"sequence": "FNCNVCGAIFTQKGNLLRHIKL", "log2 fold change of degron read counts": 0.0151},
      {"sequence": "FCCEICGHNFTQKGNLLRHIKL", "log2 fold change of degron read counts": -1.62},
      {"sequence": "FMCNVCGASFTQKGNLLRHIKL", "log2 fold change of degron read counts": -1.06},
      {"sequence": "LNCPICGFFCTQKGNLLRHIKL", "log2 fold change of degron read counts": 1.8},
      {"sequence": "FHCEVCGANFTQKGNLLRHIKL", "log2 fold change of degron read counts": -2.77}
    ]}
  ]
}
